The campaign covered roughly 39,000 compounds. About 220 (0.56%) showed activity. Some of the results follow.
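Also: static incubation at 37 °C against the wild-type strain, values averaged over two biological replicates.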

In the test the test system is Escherichia coli K-12 BW25113. Kind of test: relative growth (OD600 normalised to plate interquartile mean) (fraction); higher = less growth inhibition, active = 0.2 or less. Conditions: 50 µM; LB; incubation time: overnight (16-24 h).
In the case of `COc1ccc(S(=O)(=O)N(C)C[C@H]2Oc3ccc(NC(=O)Cn4cnnn4)cc3CC(=O)N([C@@H](C)CO)C[C@@H]2C)cc1`, the relative growth was inactive: 0.994.
In the case of `COCC(=O)N(C)C[C@@H]1Oc2cc(C#Cc3ccccc3)ccc2S(=O)(=O)N([C@H](C)CO)C[C@@H]1C`, the relative growth is inactive: 1.01.
In the case of `COc1ccc(NC(=O)Nc2ccc3c(c2)C(=O)N([C@@H](C)CO)C[C@@H](C)[C@H](CN(C)Cc2ccc(-c4ccccc4)cc2)O3)cc1` it was inactive: 1.03; in that of `CN([NH2+][O-])C(=O)N[C@@H]1[C@@H](O)[C@H](O)[C@H](CO)O[C@@H]1O`, inactive: 0.799; in that of `C[C@@H]1CN([C@@H](C)CO)C(=O)c2cc(NS(=O)(=O)c3cccs3)ccc2O[C@H]1CN(C)Cc1ccc(Oc2ccccc2)cc1`, inactive: 0.996.
As for `O=C1CN(S(=O)(=O)Cc2ccccc2)C[C@H]2[C@@H](c3ccc(C#Cc4ccc(F)cc4)cc3)[C@H](CO)N12`, the relative growth was inactive: 1.03.
The result for `C[C@@H]1CCCCO[C@@H](CN(C)C(=O)CCC(F)(F)F)[C@@H](C)CN([C@@H](C)CO)C(=O)c2cc(NC(=O)Cc3ccccc3)ccc2O1` reads inactive: 1; that for `C[C@@H]1CN([C@@H](C)CO)C(=O)c2cccc(NC(=O)C3CCOCC3)c2O[C@@H]1CN(C)Cc1ccncc1`, inactive: 0.989; that for `O=C(NO)c1ccncc1`, inactive: 0.99.
As to `COc1ccc(NC(=O)Nc2cccc3c2O[C@@H](CN(C)Cc2ccc(C(F)(F)F)cc2)[C@@H](C)CN([C@H](C)CO)C3=O)cc1`, the relative growth is inactive: 0.986.
The result for `NS(=O)(=O)c1ccccc1` reads inactive: 0.985; that for `C[C@@H]1CN([C@H](C)CO)S(=O)(=O)c2ccc(C#CC3(O)CCCC3)cc2O[C@@H]1CN(C)C(=O)Cc1ccccc1`, inactive: 1.03; that for `CN1CCN(C(=O)[C@@H]2[C@@H](CO)[C@@H]3Cn4c(ccc(C5=CCCCC5)c4=O)[C@H]2N3S(C)(=O)=O)CC1`, inactive: 0.964.
With `C[C@H]1CN([C@@H](C)CO)C(=O)c2c(c3ccccc3n2C)-c2ccccc2CO[C@H]1CN(C)Cc1ccc(Oc2ccccc2)cc1`, the relative growth was inactive: 1.01.
In the case of `COc1ccc(CN(C)C[C@H]2OCCCC[C@H](C)Oc3ccc(NC(=O)Nc4ccc(OC)cc4)cc3C(=O)N([C@H](C)CO)C[C@H]2C)cc1` it was inactive: 0.975.
As to `CCC(=O)Nc1ccc(C)c(C)c1`, the relative growth was inactive: 1.02.
In the case of `COc1ccc(S(=O)(=O)Nc2ccc3c(c2)C(=O)N([C@H](C)CO)C[C@@H](C)[C@H](CN(C)S(=O)(=O)c2ccccc2)O3)cc1` it was inactive: 1.03.
The result for `C[C@@H]1CCCCO[C@H](CN(C)C(=O)c2ccccc2)[C@H](C)CN([C@@H](C)CO)C(=O)c2cc(NC(=O)Nc3ccc(F)cc3)ccc2O1` reads inactive: 1.01.
In the case of `C[C@H](CO)N1C[C@H](C)[C@H](CN(C)Cc2ccc(Oc3ccccc3)cc2)Oc2ccc(NC(=O)Nc3ccccc3)cc2C1=O`, the relative growth is inactive: 1.02.
The result for `C[C@@H]1CN([C@H](C)CO)C(=O)c2cc(NC(=O)NC3CCCCC3)ccc2O[C@@H](C)CCCCO[C@H]1CN(C)C(=O)c1ccccc1` reads inactive: 0.973.
`C[C@@H]1CN([C@@H](C)CO)C(=O)CCCn2nncc2CO[C@@H]1CN(C)Cc1ccc(C(=O)Nc2ccccc2N)cc1`: the relative growth was inactive: 1.02.
The result for `O=C(c1cnn2c1OCCC2)N1CC(O)C1` reads inactive: 1.03; that for `C[C@H](CO)N1C[C@H](C)[C@@H](CN(C)S(C)(=O)=O)Oc2ccc(NS(=O)(=O)c3cccs3)cc2C1=O`, inactive: 0.974; that for `C[C@H](CO)N1C[C@H](C)[C@@H](CN(C)S(=O)(=O)c2cccs2)OCCCC[C@H](C)Oc2ccc(NS(C)(=O)=O)cc2C1=O`, inactive: 1.01.
In the case of `CN1C(=O)c2cc(NC(=O)Cc3cccs3)ccc2OC[C@@H]2O[C@H](CC(=O)NCCCN3CCOCC3)CC[C@H]21` it was inactive: 1.02; in that of `COc1cccc(NC(=O)N(C)C[C@@H]2OCc3ccccc3-c3c(n(C)c4ccccc34)C(=O)N([C@H](C)CO)C[C@@H]2C)c1`, inactive: 1.02.
In the case of `C[C@H](CO)N1C[C@H](C)[C@@H](CN(C)Cc2ccc(C(=O)O)cc2)Oc2ccc(NC(=O)C3CC3)cc2CC1=O` it was inactive: 0.989; in that of `C[C@@H]1CN([C@H](C)CO)C(=O)c2cc(NS(=O)(=O)c3cccs3)ccc2O[C@H]1CN(C)Cc1ccc(Cl)c(Cl)c1`, inactive: 0.994.
Take `C=CCC[C@H](Cc1ccc(F)cc1)C(=O)O[C@H](CNC(=O)[C@@H](CC=C)CC(=O)N(CCO)Cc1ccccc1)c1ccccc1`: the relative growth is inactive: 1.11.
In the case of `Cc1noc(C)c1NC(=O)N(C)C[C@@H]1Oc2ncc(C#CCN(C)C)cc2C(=O)N([C@H](C)CO)C[C@@H]1C` it was inactive: 0.979; in that of `C[C@H]1CN([C@@H](C)CO)C(=O)CCCn2nncc2CO[C@@H]1CN(C)C(=O)c1ccc(N2CCN(C)CC2)cc1`, inactive: 1.
As for `O=C(C[C@H]1C[C@H]2c3cc(NS(=O)(=O)c4ccc(F)cc4)ccc3O[C@H]2[C@H](CO)O1)NCc1ccccc1F`, the relative growth is inactive: 1.
The result for `Cc1ccc(S(=O)(=O)Nc2ccc3c(c2)C(=O)N([C@H](C)CO)C[C@H](C)[C@@H](CN(C)CC2CC2)O3)cc1` reads inactive: 1; that for `C[C@H](CO)N1C[C@H](C)[C@@H](CN(C)C(=O)C2CCCCC2)Oc2cc(C#CC3CC3)ccc2S1(=O)=O`, inactive: 1.03; that for `C[C@H](CO)N1C[C@H](C)[C@@H](CN(C)S(=O)(=O)c2cn(C)cn2)OCc2ccccc2-c2c(n(C)c3ccccc23)C1=O`, inactive: 1.01.
The result for `C[C@@H]1CN([C@H](C)CO)S(=O)(=O)c2ccc(C3=CCCCC3)cc2O[C@@H]1CN(C)Cc1cncnc1` reads inactive: 0.901.
Take `CNS(=O)(=O)c1cccs1`: the relative growth is inactive: 1.01.
In the case of `Cc1ccc(S(=O)(=O)Nc2cccc3c2O[C@@H](CN(C)CC2CC2)[C@@H](C)CN([C@@H](C)CO)C3=O)cc1` it was inactive: 1.01.
As for `CC1=C(C(=O)O)N2C(=O)[C@@H](NC(=O)[C@H](N)C3=CCC=CC3)[C@H]2SC1`, the relative growth is inactive: 1.03.
The result for `N=C(N)N1CCc2ccccc2C1.O=S(=O)(O)O` reads inactive: 1.02.
With `COc1ccc(NC(=O)Nc2ccc3c(c2)C(=O)N([C@H](C)CO)C[C@H](C)[C@H](CN(C)Cc2ccc(Cl)c(Cl)c2)OCCCC[C@@H](C)O3)cc1`, the relative growth is inactive: 0.999.
For `CC(C)OC(=O)c1cn(Cc2c(F)cccc2F)c2sc(-c3ccc(NC(=O)C(C)C)cc3)c(CN(C)Cc3ccccc3)c2c1=O`, the relative growth is inactive: 1.02.
The result for `COc1cccc(NC(=O)N(C)C[C@H]2Oc3cc(Br)ccc3S(=O)(=O)N([C@H](C)CO)C[C@H]2C)c1` reads inactive: 0.97; that for `C[C@@H]1CCCCO[C@@H](CN(C)Cc2ccc(C(=O)O)cc2)[C@H](C)CN([C@@H](C)CO)C(=O)c2cc(NS(=O)(=O)c3ccccc3)ccc2O1`, inactive: 1.04.
The result for `C[C@@H]1CN([C@@H](C)CO)C(=O)c2cccc(NC(=O)c3nc4ccccc4s3)c2O[C@H]1CN(C)C(=O)Nc1cccc2ccccc12` reads inactive: 0.957; that for `COc1ccc(S(=O)(=O)N(C)C[C@@H]2Oc3ccc(NS(=O)(=O)c4c(C)noc4C)cc3C(=O)N([C@@H](C)CO)C[C@@H]2C)cc1`, inactive: 1.02.
In the case of `O=P(O)(O)CN1CCN(CP(=O)(O)O)CCN(CP(=O)(O)O)CCN(CP(=O)(O)O)CC1` it was inactive: 1.05.
For the compound `COc1ccc(S(=O)(=O)N(C)C[C@@H]2OCCCC[C@H](C)Oc3ccc(NS(=O)(=O)c4ccc(Cl)cc4)cc3C(=O)N([C@@H](C)CO)C[C@H]2C)cc1`, the relative growth was inactive: 1.03.
In the case of `Cc1ccc(S(=O)(=O)Nc2ccc3c(c2)C(=O)N([C@@H](C)CO)C[C@@H](C)[C@H](CN(C)Cc2ccc(-c4ccccc4)cc2)O3)cc1` it was inactive: 0.978.
In the case of `COc1ccc(NC(=O)Nc2ccc3c(c2)CC(=O)N([C@H](C)CO)C[C@@H](C)[C@H](CN(C)C(=O)Nc2ccc(C(F)(F)F)cc2)O3)cc1` it was inactive: 1.02; in that of `Cc1nc(-c2ccccc2)cs1`, inactive: 1.07; in that of `C[C@H](CO)N1C[C@H](C)[C@H](CN(C)C(=O)Nc2ccc(C(F)(F)F)cc2)Oc2ccc(NC(=O)Nc3ccc4c(c3)OCO4)cc2C1=O`, inactive: 0.999.
As for `C[C@@H]1CCCCO[C@@H](CN(C)C(=O)Nc2ccc3c(c2)OCO3)[C@H](C)CN([C@H](C)CO)C(=O)c2cc(NC(=O)Nc3ccc4c(c3)OCO4)ccc2O1`, the relative growth is inactive: 1.01.
The result for `C[C@@H]1CCCCO[C@H](CN(C)C(=O)Nc2ccccc2)[C@@H](C)CN([C@@H](C)CO)C(=O)c2cc(NS(=O)(=O)c3cccs3)ccc2O1` reads inactive: 1.01; that for `Cc1ccc(S[C@]2(C(=O)NC3CC3)CC(=O)N(C3Cc4ccccc4C3)[C@@H]2c2ccc(CO)cc2I)cc1`, inactive: 1.02; that for `C[C@H]1CN([C@@H](C)CO)C(=O)c2cc(NS(C)(=O)=O)ccc2O[C@H]1CN(C)S(=O)(=O)c1ccc(F)cc1`, inactive: 1.
In the case of `C[C@H](CO)N1C[C@H](C)[C@H](CN(C)S(=O)(=O)c2cn(C)cn2)Oc2c(NS(=O)(=O)c3cn(C)cn3)cccc2C1=O` it was inactive: 0.985; in that of `Cc1ccc(S(=O)(=O)Nc2ccc3c(c2)CC(=O)N([C@@H](C)CO)C[C@@H](C)[C@@H](CN(C)CC2CC2)O3)cc1`, inactive: 0.986; in that of `COc1ccc(NC(=O)N(C)C[C@H]2Oc3c(NC(=O)CCCCCC(=O)Nc4ccccc4N)cccc3C(=O)N([C@H](C)CO)C[C@@H]2C)cc1`, inactive: 1.
In the case of `CO[C@@H]1CN(C)C(=O)c2cc(NC(=O)Nc3ccc(Cl)cc3)ccc2OC[C@H](C)N(C(=O)Nc2c(C)noc2C)C[C@@H]1C` it was inactive: 0.959.
